The values that follow come from PubChem BioAssay AID330 (DTP/NCI, 2004).

The test system of this assay is P388 leukemia ip, CD2F1 mice, survival T/C. In words: NCI In Vivo Anticancer Drug Screen. Data for tumor model P388 Leukemia (intraperitoneal) in CD2F1 (CDF1) mice. The following applies: endpoint: median survival time, higher = longer survival.

Inconclusive results and toxic doses are left out. For part of its entries the source gives two or more results. This is not the full list of results. There may be further records. Values given together do not match, cause unknown; some may be repeats, others may stem from another dose, organism or construct than stated. Records carry a tag for their origin. Letters hold for one entry only.

On to `COc1cccc2c1C(=O)c1c(O)c3c(c(O)c1C2=O)C[C@@](O)(/C(C)=N/NC(=O)c1ccc(S(N)(=O)=O)cc1)C[C@@H]3OC1CC(N)C(O)C(C)O1` (stereo not given in full), for which, for the setting “dose: 9.4 mg/kg/injection, schedule: Q04DX003 (ip), vehicle: water”, the T/C was 119 % of control and 166 % of control.
With `CCOC(=O)C(CC(C)C)NC(=O)C(Cc1ccc(N(CCCl)CCCl)cc1)NC(C)=O` (stereo not given), the T/C (dose: 32.0 mg/kg/injection, schedule: Q01DX009 (ip), vehicle: saline) is 200 % of control [sample A] and 100 % of control [sample B].
Turning to `O=C1c2ccccc2C(=O)c2c(NCCNCCO)ccc(NCCNCCO)c21`, the T/C (dose: 80.0 mg/kg/injection, schedule: Q04DX003 (ip), vehicle: saline) is 102 % of control and 199 % of control.
In the case of `CCC1(O)CC2CN(CCc3c([nH]c4ccccc34)C(C(=O)OC)(c3cc4c(cc3OC)N(C)C3C(O)(C(N)=O)C(O)C5(CC)C=CCN6CCC43C65)C2)C1` (stereo not given) (tested in a mixture with another compound), the T/C is, setting by setting: (dose: 0.38 mg/kg/injection, schedule: Q04DX003 (ip), vehicle: saline) 113 % of control and 162 % of control; (dose: 0.58 mg/kg/injection, schedule: Q04DX003 (ip), vehicle: saline) 120 % of control, 162 % of control, 194 % of control.
